# Source: the supplement of paper PMC10037445
# ± gives the standard deviation of the averaged measurements. In all, about 2,900 compounds were measured (“IRF Lucia reporter activity, fold change vs agonist alone”: median about 0.9, highest 2% from about 2.8 on). Some of the results follow.
# Assays:
# [1] = tested on: RAW-Dual; test: IRF Lucia reporter activity, fold change vs agonist alone; higher = enhanced IRF activity; conditions: library stock concentration (final ~1000-fold dilution): 10 mM, agonist: MPLA (TLR4) […]
# In short: (§1)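 RAW-Dual macrophages (50,000 cells/well in DMEM, 384-well plates) received 50 nL of library stock by pin tool, then a PRR agonist 1 h later, and were kept at 37 °C, 5% CO2. After 20 hours, supernatant was read for IRF by QuantiLuc luminescence and for NF-κB by QuantiBlue absorbance at 620 nm. Reporter activity is fold change over agonist-alone wells. Cytotoxic wells had IncuCyte confluency below 70% of agonist controls in both mask sets.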
# [2] = tested on: RAW-Dual; test: IRF Lucia reporter activity, fold change vs agonist alone; cytotoxicity flag (confluency mask): cytotoxic (confluency <70% of control); higher = enhanced IRF activity
# In short: as §1
# [3] = tested on: RAW-Dual; test: IRF Lucia reporter activity, fold change vs agonist alone; cytotoxicity flag (confluency mask): not cytotoxic; higher = enhanced IRF activity
# In short: as §1
# [4] = cytotoxicity flag (confluency mask): not cytotoxic
# [5] = agonist: 3'3'-cGAMP (STING) 10 ug/mL
smiles,measurement,setting,value
Nc1ccc2ncnc(NCCc3ccc(Oc4ccccc4)cc3)c2c1,IRF Lucia reporter activity,[1]; [4],1.17 ± 0.22
CCOC(=O)N1CCC(=C2c3ccc(Cl)cc3CCc3cccnc32)CC1 (library stock concentration (final ~1000-fold dilution): 10 mM),IRF Lucia reporter activity,[2]; [5],0.821
same,IRF Lucia reporter activity,[2]; agonist: LPS (TLR4) 0.1 ug/mL,0.829
CCOC(=O)N1CCC(=C2c3ccc(Cl)cc3CCc3cccnc32)CC1,IRF Lucia reporter activity,[1]; cytotoxicity flag (confluency mask): cytotoxic (confluency <70% of control),0.615
COc1cc2c(cc1Cc1cccc(Cl)c1F)c(=O)c(C(=O)O)cn2C(CO)C(C)C (stereo unspecified),IRF Lucia reporter activity,[1]; [4],1.04
COc1cc2c(cc1Cc1cccc(Cl)c1F)c(=O)c(C(=O)O)cn2C(CO)C(C)C (stereo unspecified) (library stock concentration (final ~1000-fold dilution): 10 mM),IRF Lucia reporter activity,[3]; [5],1.15
same,IRF Lucia reporter activity,[3]; agonist: LPS (TLR4) 0.1 ug/mL,0.931
CC1c2cccc(O)c2C(=O)C2=C(O)C3(O)C(=O)C(C(N)=O)=C(O)C(N(C)C)C3C(O)C21 (stereo unspecified),IRF Lucia reporter activity,[1]; [4],0.975
CC1c2cccc(O)c2C(=O)C2=C(O)C3(O)C(=O)C(C(N)=O)=C(O)C(N(C)C)C3C(O)C21 (stereo unspecified) (library stock concentration (final ~1000-fold dilution): 10 mM),IRF Lucia reporter activity,[3]; [5],0.96
same,IRF Lucia reporter activity,[3]; agonist: LPS (TLR4) 0.1 ug/mL,0.682
CCc1ccc(NC(=O)Nc2ccccc2)cc1 (library stock concentration (final ~1000-fold dilution): 10 mM),IRF Lucia reporter activity,[3]; [5],0.658
same,IRF Lucia reporter activity,[3]; agonist: LPS (TLR4) 0.1 ug/mL,0.658
O=C(NOCC1CC1)c1ccc(F)c(F)c1Nc1ccc(I)cc1Cl,IRF Lucia reporter activity,[1]; [4],2.05
O=C(NOCC1CC1)c1ccc(F)c(F)c1Nc1ccc(I)cc1Cl (library stock concentration (final ~1000-fold dilution): 10 mM),IRF Lucia reporter activity,[3]; [5],0.525
same,IRF Lucia reporter activity,[3]; agonist: LPS (TLR4) 0.1 ug/mL,2.5
CS(=O)(=O)CCNCc1ccc(-c2ccc3ncnc(Nc4ccc(OCc5cccc(F)c5)c(Cl)c4)c3c2)o1.Cc1ccc(S(=O)(=O)O)cc1.Cc1ccc(S(=O)(=O)O)cc1.O (library stock concentration (final ~1000-fold dilution): 10 mM),IRF Lucia reporter activity,[3]; [5],0.259
same,IRF Lucia reporter activity,[3]; agonist: LPS (TLR4) 0.1 ug/mL,2.46
CS(=O)(=O)CCNCc1ccc(-c2ccc3ncnc(Nc4ccc(OCc5cccc(F)c5)c(Cl)c4)c3c2)o1.Cc1ccc(S(=O)(=O)O)cc1.Cc1ccc(S(=O)(=O)O)cc1.O,IRF Lucia reporter activity,[1]; [4],1.8
NC(=O)c1ccccc1O,IRF Lucia reporter activity,[1]; [4],0.979
NC(=O)c1ccccc1O (library stock concentration (final ~1000-fold dilution): 10 mM),IRF Lucia reporter activity,[3]; [5],1.01
same,IRF Lucia reporter activity,[3]; agonist: LPS (TLR4) 0.1 ug/mL,0.699
N#Cc1cnc(Nc2cc(NCC3CNCCO3)c(C(F)(F)F)cn2)cn1 (stereo unspecified) (library stock concentration (final ~1000-fold dilution): 10 mM),IRF Lucia reporter activity,[3]; [5],0.342
same,IRF Lucia reporter activity,[3]; agonist: LPS (TLR4) 0.1 ug/mL,0.475
Cc1nc(NC(=O)N2CCCC2C(N)=O)sc1-c1ccnc(C(C)(C)C(F)(F)F)c1 (stereo unspecified),IRF Lucia reporter activity,[1]; [4],0.722
Cc1nc(NC(=O)N2CCCC2C(N)=O)sc1-c1ccnc(C(C)(C)C(F)(F)F)c1 (stereo unspecified) (library stock concentration (final ~1000-fold dilution): 10 mM),IRF Lucia reporter activity,[3]; [5],0.229
same,IRF Lucia reporter activity,[3]; agonist: LPS (TLR4) 0.1 ug/mL,0.491
CC(C(=O)O)c1ccc(CC2CCCC2=O)cc1 (stereo unspecified) (library stock concentration (final ~1000-fold dilution): 10 mM),IRF Lucia reporter activity,[3]; [5],1.06
same,IRF Lucia reporter activity,[3]; agonist: LPS (TLR4) 0.1 ug/mL,1.07
CC(C(=O)O)c1ccc(CC2CCCC2=O)cc1 (stereo unspecified),IRF Lucia reporter activity,[1]; [4],1.12
CC1c2cccc(O)c2C(=O)C2=C(O)C3(O)C(=O)C(C(N)=O)=C(O)C(N(C)C)C3C(O)C21.CC1c2cccc(O)c2C(=O)C2=C(O)C3(O)C(=O)C(C(N)=O)=C(O)C(N(C)C)C3C(O)C21.CCO.Cl.Cl.O (stereo unspecified),IRF Lucia reporter activity,[1]; [4],1.03
CC1c2cccc(O)c2C(=O)C2=C(O)C3(O)C(=O)C(C(N)=O)=C(O)C(N(C)C)C3C(O)C21.CC1c2cccc(O)c2C(=O)C2=C(O)C3(O)C(=O)C(C(N)=O)=C(O)C(N(C)C)C3C(O)C21.CCO.Cl.Cl.O (stereo unspecified) (library stock concentration (final ~1000-fold dilution): 10 mM),IRF Lucia reporter activity,[3]; [5],0.994
same,IRF Lucia reporter activity,[3]; agonist: LPS (TLR4) 0.1 ug/mL,1.13
O=C(c1cc(Cc2n[nH]c(=O)c3ccccc23)ccc1F)N1CCN(C(=O)C2CC2)CC1 (library stock concentration (final ~1000-fold dilution): 10 mM),IRF Lucia reporter activity,[3]; [5],0.977
same,IRF Lucia reporter activity,[3]; agonist: LPS (TLR4) 0.1 ug/mL,1.37
O=C(c1cc(Cc2n[nH]c(=O)c3ccccc23)ccc1F)N1CCN(C(=O)C2CC2)CC1,IRF Lucia reporter activity,[1]; [4],1.31
CCN(CC)CCNC(=O)c1cc(Cl)c(N)cc1OC.Cl (library stock concentration (final ~1000-fold dilution): 10 mM),IRF Lucia reporter activity,[3]; [5],1.02
same,IRF Lucia reporter activity,[3]; agonist: LPS (TLR4) 0.1 ug/mL,0.788
CCN(CC)CCNC(=O)c1cc(Cl)c(N)cc1OC.Cl,IRF Lucia reporter activity,[1]; [4],1.1
Cl.O=S(=O)(c1cccc2cnccc12)N1CCCNCC1 (library stock concentration (final ~1000-fold dilution): 10 mM),IRF Lucia reporter activity,[3]; [5],0.811
same,IRF Lucia reporter activity,[3]; agonist: LPS (TLR4) 0.1 ug/mL,0.515
Cl.O=S(=O)(c1cccc2cnccc12)N1CCCNCC1,IRF Lucia reporter activity,[1]; [4],0.55
